From PubChem BioAssay AID1347073 (National Center for Advancing Translational Sciences (NCATS), 2019) come the findings set out here.

Among all 45,000 compounds or so, about 200 (0.44%) were called active. Not shown: some 7% with an inconclusive outcome. Calls come from the whole dose curve; as a rule, active = well fitted activation curve with a large enough effect; inconclusive = small, poorly fitted or top-dose-only effect; inactive = no such curve, though single readings can be large or run the other way. The list shows a part of the results.

The nature of this experiment: qHTS of TDP-43 Inhibitors: NCGC Sytravon Library Screen. Note: 0% is about no effect; nearly all actives have a fitted effect of over 55% in size. Particulars: yeast TDP-43 toxicity rescue, BacTiter-Glo growth, 24 h; series mostly up to 46.1 µM; growth rescue (activation): at the top concentration. In a few lines: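 TDP-43-expressing yeast, pregrown in raffinose, seeded at OD600 0.02 in galactose medium with compound for 24 hr at 30 deg C. Growth read by BacTiter-Glo luminescence, so rescue of toxicity appears as activation.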
(Quantitative high-throughput screening tests each substance at several concentrations.)
For the compound `CC(C)(C)c1ccc(C2C(C(=O)c3ccco3)=C(O)C(=O)N2CC2CCCO2)cc1` (configuration not stated), the “growth rescue (activation)” value was inactive: 29.9%.
On to `O=C(Cn1cnc2cc([N+](=O)[O-])ccc2c1=O)Nc1cccc2ccccc12`, for which the “growth rescue (activation)” value is inactive: -1.08%.
Then `COc1ccc(Cc2nnc(NC(=O)c3ccc(OC)c(OC)c3)s2)cc1`, with inactive: -4.83%.
With `CCc1cccc(NC(=O)Cn2c(-c3ccccc3)cc(C(C)=O)c2C)c1` the figure was inactive: -3.28%.
With `CCCS(=O)(=O)NC(=O)C1(C)CCCN(C(=O)c2cc(F)cc(F)c2)C1` (configuration not stated), the “growth rescue (activation)” value is inactive: 3.34%.
Then `Cc1ccccc1-c1nc(NC(C)C)nc2cc(-c3ccccc3)sc12`, with inactive: 19.7%; and `COc1ccccc1CNC(=O)CN1C(=O)NC(c2ccccc2)(c2ccccc2)C1=O`, with inactive: 3.47%; and `COc1cc(/C=C/c2noc(-c3ccccc3O)n2)cc(OC)c1OC`, with inactive: -2.71%.
Then `CCn1c(=O)c2c(nc(SCC(=O)N3CCC(C)CC3)n2C)n(C)c1=O`, with inactive: -0.704%.
Then `CN(CC(=O)NCc1ccccc1Cl)S(=O)(=O)c1cccs1`, with inactive: 14.3%.
`Cc1ccc(SCc2cc(=O)[nH]c(SCC(=O)Nc3cc(Cl)ccc3Cl)n2)cc1`: the “growth rescue (activation)” value was inactive: -0.31%.
Then `CCOC(=O)c1cc(NC(=O)N2CCCc3ccccc32)c(C)nc1C`, with inactive: -8.18%; and `Cc1ccc(/C=C2/SC(=S)N(CCC(=O)N3CCOCC3)C2=O)cc1`, with inactive: -5.3%; and `Cc1ccc(SCC(=O)NC(=O)c2ccc(S(=O)(=O)N(C)C)cc2)cc1C`, with inactive: 7.11%.
With `COc1cccc(C(=O)OCC(=O)Nc2cc(C)on2)c1OC` the figure was inactive: 13.2%.
Turning to `O=C(CSc1nnnn1C1CCCC1)Nc1ccccc1N1CCOCC1`, the “growth rescue (activation)” value was inactive: 2.34%.
Then `O=C(OCc1ccc(F)cc1)c1cc(=O)c2ccccc2o1`, with inactive: 26.9%.
Then `OC[C@@H]1CN(Cc2ccc(Cl)cc2)C[C@H](n2cnc3c(N4CCCC4)ncnc32)O1`, with inactive: 6.86%.
Then `O=CN1CCN(C(=O)c2ccccc2Cl)CC1`, with inactive: 24%; and `Cc1cccc(-n2c(CCN3C(=O)c4ccccc4C3=O)nc3ccccc3c2=O)n1`, with inactive: 3.49%.
As for `O=C(Nc1nnc(N2CCCCCC2)s1)Nc1ccccc1C(F)(F)F`, the “growth rescue (activation)” value is inactive: 26%.
Then `CC(C)c1cccc(OCC(=O)Nc2ccc(S(=O)(=O)Nc3ccccn3)cc2)c1`, with inactive: 7.37%.
Then `O=C(C1CCN(C2CCN(Cc3cccc4c3OCO4)CC2)CC1)N1CCOCC1`, with inactive: 7.7%; and `O=C(c1ccccc1)N1CCN(CC(O)Cn2ccc3ccccc32)CC1` (configuration not stated), with inactive: -23.7%.
Then `COc1ccccc1/C=C(/C(=O)OCC(=O)NCc1ccccc1)c1ccccc1`, with inactive: 3.3%; and `COc1ccc(/C=C2\SC(=O)N(CCC(=O)Nc3ccccc3)C2=O)cc1OC`, with inactive: 5.72%.
With `O=C(CCC(=O)Nc1cc(C(F)(F)F)ccc1Cl)N/N=C\c1cc([N+](=O)[O-])ccc1O`, the “growth rescue (activation)” value was inactive: -5.55%.
With `CC(=O)c1sc(NC(C)c2ccccc2)nc1C` (configuration not stated) the figure was inactive: 25.6%.
With `COc1ccc(C(=O)COC(=O)c2ccccn2)c(OC)c1` the figure was inactive: -15.7%.
Then `COC(=O)c1ccc(NC(=O)CCN2C(=O)CSC2=O)cc1`, with inactive: 6.7%; and `CCN(CC(=O)NCc1ccc(Cl)cc1)C(=O)c1cc(S(=O)(=O)N2CCOCC2)ccc1C`, with inactive: 29.8%.
In the case of `O=C(OCC(=O)N1CCCc2ccccc21)c1ccccc1OC(F)F`, the “growth rescue (activation)” value was inactive: 18.9%.
`N#CC1=C(N)OC2=C(C(=O)CC(c3ccccc3)C2)C1c1ccc2c(c1)OCO2` (configuration not stated): the “growth rescue (activation)” value is inactive: 14.4%.
Then `CCCc1c(O)nc(SC2CC(=O)N(c3ccc(OC)cc3)C2=O)[nH]c1=O` (configuration not stated), with inactive: -11.7%; and `Cc1nc2ccccc2c(=O)n1/N=C/c1cc(Br)ccc1O`, with inactive: -4.94%.
For `COc1ccccc1C(CNc1ncccc1[N+](=O)[O-])N(C)C` (configuration not stated), the “growth rescue (activation)” value is inactive: 4.98%.
Consider `CC(C(=O)Nc1cccc(S(=O)(=O)N2CCOCC2)c1)N1CCN(c2ccc(F)cc2)CC1` (configuration not stated), for which the “growth rescue (activation)” value was inactive: 13.1%.
With `CC(=O)Nc1ccc(-c2ccnc3c2CC(C)(C(=O)Nc2cccc(Oc4ccccc4)c2)O3)cc1` (configuration not stated) the figure was inactive: 4.55%; with `Cc1ccc(/C=C2\NC(=S)NC2=O)cc1[N+](=O)[O-]`, inactive: 13.1%.
Consider `COc1ccc(/C=N/Nc2nnc(Cc3ccccc3)c(=O)[nH]2)cc1OC`, for which the “growth rescue (activation)” value was inactive: 6.62%.
With `OC(c1ccc(F)cc1)C(CN1CCOCC1)c1ccccc1` (configuration not stated) the figure was inactive: 5.31%.
Consider `CCCCNC(=O)C1(C)CCCCN1C(=O)c1ccc(F)c(C)c1` (configuration not stated), for which the “growth rescue (activation)” value is inactive: -7.8%.
As for `CC1(C)Cc2c(cnn2-c2cccc(F)c2)C(NC(=O)Cn2cccn2)C1` (configuration not stated), the “growth rescue (activation)” value was inactive: 0.462%.
Take `CC(C)C(NC(=O)c1ccccc1F)C(=O)NCc1ccc(F)cc1` (configuration not stated): the “growth rescue (activation)” value was inactive: 18.5%.
With `COc1ccc(S(N)(=O)=O)cc1C(=O)OCC(=O)N1c2ccccc2NC(=O)C1(C)C` the figure was inactive: -0.343%; with `Cc1ccccc1C(=O)NC1CCN(C(=O)NC2CCCCC2)CC1`, inactive: 6.82%.
Take `COc1ccccc1N1CC(C(=O)NC2CCCCCC2)CC1=O` (configuration not stated): the “growth rescue (activation)” value was inactive: 1.01%.
With `Cc1occc1-c1nnc(SCC(=O)Nc2ccc(F)cc2)n1C` the figure was inactive: -10.6%.
Then `CNS(=O)(=O)c1cccc(C(=O)OCC(=O)Nc2ccc(-c3nc4ccc(C)cc4s3)cc2)c1`, with inactive: 8.15%; and `O=S(=O)(NCCN1CCOCC1)c1ccc(F)c(Cl)c1`, with inactive: -4.64%; and `Cc1c(N=Nc2c(-c3ccc([N+](=O)[O-])cc3)[nH]n(C(N)=S)c2=O)cccc1[N+](=O)[O-]`, with inactive: 6.82%.
Then `Cc1cc(Cl)ccc1OCCCC(=O)N/N=C/c1cccc([N+](=O)[O-])c1`, with inactive: 15.1%.
As for `CCn1nnc(NC(=O)c2cc(Cl)c(OC)c(Cl)c2)n1`, the “growth rescue (activation)” value was inactive: 6.07%.
Then `CCCS(=O)(=O)NC(=O)C1(C)CCN(C(=O)COc2ccccc2)C1` (configuration not stated), with inactive: 5.7%; and `COc1ccc(C2C(C(=O)c3ccco3)=C(O)C(=O)N2CCN2CCOCC2)cc1` (configuration not stated), with inactive: -7.78%; and `CCOC(=O)c1c(C)c(C(=O)NCc2ccco2)c(C)n1CC`, with inactive: -1.1%.
With `Cc1nn(Cc2ccc(F)cc2Cl)c(C)c1[N+](=O)[O-]` the figure was inactive: 24.3%; with `Cc1cc(C(=O)N/N=C/c2ccc(-c3cccc(Cl)c3)o2)n[nH]1`, inactive: -1.22%; with `COc1ccc(C(=O)NNC(=O)CCC(=O)Nc2cc(C)on2)cc1`, inactive: -21.1%.
With `CN(/N=C/c1ccc(N(C)C)cc1)C1=NS(=O)(=O)c2ccccc21` the figure was inactive: 12.5%; with `Cc1ccc(C)c(NC(=S)NNC(=S)Nc2ccc(C(C)C)cc2)c1`, inactive: 6.89%.
`O=C(NCC1CCCO1)c1ccccc1NS(=O)(=O)c1ccc(Br)s1` (configuration not stated): the “growth rescue (activation)” value is inactive: 14.3%.
On to `Cn1nc([N+](=O)[O-])nc1Sc1nnc(-c2ccccc2)o1`, for which the “growth rescue (activation)” value was inactive: 27.8%.
Then `O=C(Nc1ncc(C(F)(F)F)cc1Cl)c1ccc(S(=O)(=O)N2CCOCC2)cc1`, with inactive: 9.8%; and `Cc1cc(C)c(C#N)c(Cl)n1`, with inactive: 5.37%; and `CCN(CC)CCNC(=O)c1ccccc1N`, with inactive: -16.5%.
Then `CN(C)C(CNC(=O)c1ccccc1C(F)(F)F)c1ccco1` (configuration not stated), with inactive: -27.2%; and `Cc1nc(N2CCOCC2)[nH]c(=O)c1C`, with inactive: 8.92%; and `CCOc1ccc(Nc2nc(NCC3CCCO3)c3ccccc3n2)cc1` (configuration not stated), with inactive: 23.1%.
Then `CS(=O)(=O)c1ccc(C(=O)NNC(=O)c2cc(-c3ccccc3)n[nH]2)cc1`, with inactive: -0.208%; and `COc1ccccc1N(CC(=O)Nc1ccc(Cc2ccncc2)cc1)S(=O)(=O)c1ccccc1`, with inactive: -10.9%; and `O=C(COC(=O)C1CCC1)Nc1ccc(Cl)cn1`, with inactive: -1.31%.
As to `Cc1cc(NC(=O)COC(=O)C2CC(=O)N(c3ccccc3)C2)no1` (configuration not stated), the “growth rescue (activation)” value was inactive: -15.5%.
With `COc1ccc(/C=C2\SC(=S)N(CC(=O)NCCO)C2=O)cc1` the figure was inactive: -3.03%; with `CNC(=O)CN(c1ccc(Oc2ccccc2)cc1)S(=O)(=O)c1ccc(C)cc1`, inactive: 7.04%; with `Cc1cc(C(=O)OCC(=O)NCc2cccs2)ccc1[N+](=O)[O-]`, inactive: 11.9%.
Then `Cc1cc(CNC(=O)c2cc(COc3ccc(F)c(F)c3)on2)nn1C`, with inactive: 24.4%; and `Cc1cc(=O)[nH]c(SCC(=O)Nc2ccc(C)c(S(=O)(=O)N3CCCCC3)c2)n1`, with inactive: 25.9%; and `CCOC(=O)C1(C)CCN1C(=O)c1ccc(Cl)cc1Cl` (configuration not stated), with inactive: 23.3%.
With `COc1ccc(NC(=O)/C(C#N)=C\C=C\c2ccco2)cc1` the figure was inactive: 1.39%.
Consider `CS(=O)(=O)N(CCc1ccccc1)CC(=O)NCc1ccccc1Cl`, for which the “growth rescue (activation)” value was inactive: 7.98%.
Regarding `O=C(CSc1ccccc1)N/N=C/c1ccccc1O`, the “growth rescue (activation)” value is inactive: 14.2%.
With `COCCNC(=O)NC12CC3(C)CC(C)(CC(C)(C3)C1)C2` the figure was inactive: 11.6%; with `O=C1CCC(C(=O)N2CCN(c3ccccc3)CC2)CN1CC1CCCCC1` (configuration not stated), inactive: 0.358%.
For `Cc1cccc(C)c1NC(=S)N1CCCN(Cc2ccc(F)cc2)C1`, the “growth rescue (activation)” value was inactive: 12.7%.
With `Cn1c(=O)[nH]c2c(nc(-c3ccc(Cl)cc3)n2C)c1=O` the figure was inactive: 9.49%; with `O=C(COc1ccccc1)NCC(=O)Nc1cccc(S(=O)(=O)NC2=NCCC2)c1`, inactive: 0.026%; with `Cc1cc(C)c2nc(Nc3nc(CSc4nc5ccccc5[nH]4)cc(=O)[nH]3)nc(C)c2c1`, inactive: -18.1%.
With `CSc1nc(-c2ccccc2)nc(NC(=O)C(C)C)c1C(C)=O` the figure was inactive: 9.82%; with `CCOc1ccc(N(C(=O)c2snc(C(N)=O)c2N)C(C)C(=O)NC2CCCCC2)cc1` (configuration not stated), inactive: 15.5%; with `Cc1cc(NC(=O)c2ccccc2-c2ccccc2C(=O)O)no1`, inactive: -7.39%.
Then `O=C(CCCc1ccccc1)Nc1cccc(C(=O)O)c1`, with inactive: 3.22%; and `COc1cc(CCC(=O)OCC(=O)Nc2ccccc2C(C)C)cc(OC)c1OC`, with inactive: 29%.
In the case of `COc1ccc(/C=N/NC(=O)c2ccncc2)c(C(=O)O)c1OC`, the “growth rescue (activation)” value is inactive: 6.13%.
With `COc1cccc(/C=C/C(=O)OCC(=O)NC2CCCCCCC2)c1` the figure was inactive: 8.55%; with `COc1ccc(CN2CCN(CCc3ccccc3)C(CCO)C2)c(O)c1` (configuration not stated), inactive: -5.37%; with `CCOC(=O)C(=O)Nc1ccccc1C(=O)OC`, inactive: 24.1%.
Take `CC(=O)NC(CC(=O)NCCOc1ccccc1F)c1ccccc1` (configuration not stated): the “growth rescue (activation)” value is inactive: -1.95%.
`CC(C)(C)c1ccc(C(=O)N2CCC2(C)C(=O)Nc2ccc3[nH]ncc3c2)cc1` (configuration not stated): the “growth rescue (activation)” value was inactive: 18.8%.
Turning to `Cc1cc(C(=O)COC(=O)c2ccc(O)cc2)c(C)n1CC1COc2ccccc2O1` (configuration not stated), the “growth rescue (activation)” value is inactive: -3.47%.
With `Cc1csc(N/N=C/c2ccccn2)n1` the figure was inactive: 19.8%.
Then `O=C(C[n+]1cc(-c2ccccc2)n2c1CCCCC2)c1ccc(Cl)cc1`, with inactive: 11%; and `CC(=O)c1cccc(NC(=O)Nc2ccccc2)c1`, with inactive: 3.77%; and `O=C1c2ccccc2C(=O)C1c1ccc(O)cc1`, with inactive: 15.9%.
With `COc1ccc(S(=O)(=O)N2CCC(C(=O)NCC3CC3)CC2)cc1` the figure was inactive: -21.4%; with `NC(=O)CN1CCN(C2CC(=O)N(CCc3ccccc3)C2=O)CC1` (configuration not stated), inactive: -7.7%; with `Cc1cc(C)cc(-n2c(SCC(=O)Nc3cccc(S(=O)(=O)NC4=NCCCCC4)c3)nc3ccccc3c2=O)c1`, inactive: 22.9%.
